Laboratory results published in the supplement of paper PMC3334620.
The full ranking holds about 33,000 sequences; the median of “E-score (-0.5 to 0.5)” is about -0.021, and the highest 2% start at about 0.32. This is one part of the list.

These sequences were tested against T1, Zap1 (UniProt P47043) (assay: PBM E-score (8-mer binding enrichment) (E-score (-0.5 to 0.5)); higher = stronger / more preferred TF binding; most listed sequences are background and not binding sites). Conditions: protein concentration: 200 nM; construct: GST-full length.
T1 sequence: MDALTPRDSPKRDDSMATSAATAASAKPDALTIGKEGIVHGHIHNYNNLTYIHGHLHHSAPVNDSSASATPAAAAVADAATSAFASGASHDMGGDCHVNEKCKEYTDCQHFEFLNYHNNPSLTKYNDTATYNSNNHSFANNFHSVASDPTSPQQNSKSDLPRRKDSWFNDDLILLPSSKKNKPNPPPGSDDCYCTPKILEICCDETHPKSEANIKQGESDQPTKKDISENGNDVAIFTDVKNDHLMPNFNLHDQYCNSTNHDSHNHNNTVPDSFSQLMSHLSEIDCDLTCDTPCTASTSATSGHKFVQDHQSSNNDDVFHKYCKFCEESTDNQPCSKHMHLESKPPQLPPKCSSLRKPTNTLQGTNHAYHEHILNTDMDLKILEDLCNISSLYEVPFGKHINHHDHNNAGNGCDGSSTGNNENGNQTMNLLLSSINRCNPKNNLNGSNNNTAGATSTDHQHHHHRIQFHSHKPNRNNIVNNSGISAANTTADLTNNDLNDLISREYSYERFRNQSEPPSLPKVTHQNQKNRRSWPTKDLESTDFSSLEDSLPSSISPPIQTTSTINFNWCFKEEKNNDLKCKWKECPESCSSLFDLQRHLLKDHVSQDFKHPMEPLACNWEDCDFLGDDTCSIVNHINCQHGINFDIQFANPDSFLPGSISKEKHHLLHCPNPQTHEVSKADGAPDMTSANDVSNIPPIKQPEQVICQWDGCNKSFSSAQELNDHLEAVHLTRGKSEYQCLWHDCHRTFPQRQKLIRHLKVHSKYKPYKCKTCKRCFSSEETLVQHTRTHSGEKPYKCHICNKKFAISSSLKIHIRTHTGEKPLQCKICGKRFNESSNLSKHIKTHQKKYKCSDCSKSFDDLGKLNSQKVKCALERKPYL
Procedure, shortened: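 GST-tagged yeast TFs (full-length or DNA-binding domain) were made by PURExpress in vitro transcription/translation and applied at about 100-200 nM to universal all-10-mer Agilent arrays. The arrays were made double-stranded by primer extension, on fresh or once-stripped slides. Bound protein was detected with fluorescent anti-GST, and scans were normalised with masliner. Each ungapped eight-base word, pooled with its reverse complement, received an E-score (modified Wilcoxon-Mann-Whitney statistic) from the Universal PBM Analysis Suite.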

Sequence	PBM E-score
GATAACTA	0.231
CTGAGCGC	-0.201
AAGGAGTC	-0.158
AACCCGTA	0.27
CTTGATCC	0.0074
AAATGGTA	0.201
AAAATGCC	0.0196
CCTTAGAA	0.211
GTTCACAA	0.0509
GCTGAGAC	-0.0399
GCTAATGA	-0.0982
AGGCCTAT	0.00314
CGAGCTAA	-0.031
GATGCAAA	0.0934
GATGCCGA	-0.0475
GGCGTGAC	-0.0379
GCTGGAGA	-0.258
AACATCCT	-0.0473
GCCGGGTA	0.075
AGACGGCT	-0.264
GTATAACA	0.0711
ACACTTGC	-0.0103
CGTCCGGC	-0.0468
AAACCGGT	0.0353
CCGGTTCA	-0.139

Sequence	PBM E-score
GAGGTCAA	0.21
GCGGTCCA	0.0181
AGCGTAGG	-0.193
GAAGAGGC	-0.0597
ATCCAACC	-0.0092
GACTGAGC	-0.219
CATCATAC	0.165
GGGGTCGA	-0.0279
ATTATCGA	-0.112
ACGAAGCA	0.0109
ATATCGAG	-0.15
CCCTCCTA	-0.229
AATGCTCT	-0.232
GCAAATAC	0.0671
GATGGAAC	-0.188
CATTATAA	0.12
AGAGTTAC	0.0508
GCCTAGTA	0.0248
AATGTTTG	0.0436
AAGCATAG	-0.224
ACAGTTGG	-0.101
AATTGTCA	0.136
CGGGGCCC	0.216
AGATTCAA	-0.0176
CAATATTG	0.109

Sequence	PBM E-score
GTAACGAA	0.159
AACATGCT	-0.187
TAGACAGA	0.053
ACCGATTG	0.0283
CCCATACG	-0.106
CGTATGCA	-0.0881
GAAAGCTC	-0.183
CAGCCAGA	-0.16
AGAGAGGC	-0.284
AAAAGAGT	-0.00807
GTACATGA	0.0396
GAGGGTCA	0.397
TCTAGTCA	-0.0484
CTGGCATA	-0.0691
CATAAGCC	0.0614
CAACGAGG	0.0648
CACCACGC	-0.158
GCTCTTAC	-0.0996
CAACGAGA	-0.0227
CCGCGGTA	0.265
TGCTCAAA	-0.079
AAGCGTGG	-0.23
AGAACGCT	-0.25
GACACGGA	-0.139
CCAATACG	-0.155

Sequence	PBM E-score
GACCTACA	0.0563
AAGAAATT	0.0664
CTTACCCA	0.0429
TTCCAGAA	0.0549
CTGCAATA	-0.0259
GAGATACA	0.186
AGGATCAG	-0.211
ACTTCAGC	-0.202
TGTGACAA	0.0777
GGATTACC	0.172
GATAGGAA	-0.00552
ACAGCAAC	-0.00827
GTTTCCTA	0.142
ATCCTAAG	-0.00974
AAAACGGA	0.0457
CGTATCAC	-0.173
CATTGTAC	-0.0163
GATACAAA	0.152
CATGGTAG	0.0433
AAAGACGT	-0.105
CAGCGGGG	-0.0777
CTTGCAAG	0.189
ATAGCGTA	0.049
CTGACGAC	-0.0574
ATATGTTA	-0.0726

Sequence	PBM E-score
TACCCTGA	0.406
ACAGCATC	-0.0364
AATGAGGA	-0.232
ACGTTCCC	-0.227
ATTAATTG	0.158
CTGGACAG	0.0179
CCAATAGC	0.00062
CACACCTC	-0.121
ATGGGAAG	-0.106
AGAATCTA	0.0831
AACTTGTG	0.16
CGTCCAAA	0.122
ATTTTAGG	0.198
AAACGATA	0.1
AAAAGTAG	0.0863
CGGAGGAC	-0.25
AACGGGTA	0.375
AGAGTGAG	-0.145
CACCGACA	-0.156
ACTTGTCA	-0.214
AGCAAGAC	-0.0397
ACACGCCG	0.0254
GTGCCCGA	-0.105
AAGTACTG	-0.021
AAACACAA	0.138

Sequence	PBM E-score
CTTGCGTA	-0.00416
AGACGCGA	-0.036
ACATCCCG	-0.116
CAGGTGAC	0.241
CGGTCCTC	-0.15
CGAAACTA	0.124
GGTCATGA	0.346
AGTGCAAT	0.0115
CCTCGCGC	-0.00774
CGATTTGC	-0.162
ATACCTGA	0.312
CTCATAAA	0.0219
CCTAGACA	-0.139
AGGCCCCG	-0.0598
ATCTATGA	-0.253
ATCTAGAG	-0.0663
AGAGCTCA	-0.133
ACCTCATA	0.243
ATGTGTAG	-0.117
GGAGGTAA	0.289
GCGATCGC	0.109
CTCGTGTA	0.089
GGCTTGAC	-0.0797
ACAATGAA	0.0953
CGCTGTGA	-0.023

Sequence	PBM E-score
AGCCGGTA	0.0757
CCCCCCAG	-0.311
GGGACAGA	-0.228
GATTACAA	-0.0141
ATTGGTCG	0.153
CGCGACGC	-0.0704
TCAAGCGA	-0.0513
CAAGACAC	-0.0181
CCGGCGCA	-0.137
CGTACTCA	-0.0651
CAAAATTA	0.287
CCCCAAGG	0.123
CTGCTTCA	-0.223
CCAACTGA	-0.00692
AAACATGT	0.14
CGTCATAA	-0.0193
AAATCCAC	-0.0197
GTTGCACA	-0.0449
ACGAAGAA	0.0665
AGCCCGTA	-0.271
ATGAGAGG	-0.0137
ATTCACAG	0.0175
